# Measured values taken from the supplement of paper PMC3334620.
# Over roughly 33,000 sequences, “E-score (-0.5 to 0.5)” has its median near -0.035; the highest 2% begin near 0.34. The list shows a part of the results.
# Biological target: T1, Mot3 (UniProt P54785)
# T1 sequence: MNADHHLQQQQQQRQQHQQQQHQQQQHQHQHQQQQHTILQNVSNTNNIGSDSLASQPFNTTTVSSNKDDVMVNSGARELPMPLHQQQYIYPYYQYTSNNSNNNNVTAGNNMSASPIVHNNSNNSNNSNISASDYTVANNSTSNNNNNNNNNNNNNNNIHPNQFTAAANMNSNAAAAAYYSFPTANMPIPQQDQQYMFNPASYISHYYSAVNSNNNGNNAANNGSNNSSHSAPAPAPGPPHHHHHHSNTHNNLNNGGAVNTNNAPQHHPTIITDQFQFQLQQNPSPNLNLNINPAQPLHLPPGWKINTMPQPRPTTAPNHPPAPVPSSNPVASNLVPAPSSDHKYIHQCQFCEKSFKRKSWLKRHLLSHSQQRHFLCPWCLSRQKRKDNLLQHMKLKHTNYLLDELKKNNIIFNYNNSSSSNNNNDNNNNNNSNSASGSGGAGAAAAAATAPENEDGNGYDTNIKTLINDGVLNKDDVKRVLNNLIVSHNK
# Assay: PBM E-score (8-mer binding enrichment) (E-score (-0.5 to 0.5)); higher = stronger / more preferred TF binding; most listed sequences are background and not binding sites
# Conditions: protein concentration: 200 nM; construct: GST-full length
# Outline: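 Detection of bound protein used fluorescent anti-GST, with scans normalised by masliner. The proteins were GST-tagged yeast transcription factors applied at about 100-200 nM to universal all-10-mer Agilent arrays made double-stranded by primer extension. Each ungapped eight-base word, pooled with its reverse complement, was scored with an E-score from the Universal PBM Analysis Suite.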
row,Sequence,PBM E-score
1,CGAAGCTC,-0.229
2,TACCACGA,0.181
3,GGACTCGA,-0.181
4,CAAAACCG,0.0415
5,GATCGAGA,-0.0696
6,CGACACAC,0.219
7,AAGCGAGG,-0.222
8,ATGCAGCC,-0.0826
9,AGACAGAG,0.0671
10,CGGAATGA,-0.113
11,CAGTCTAC,-0.134
12,ACTACTTC,-0.00563
13,CGGCAACC,-0.0847
14,AGGGAAAT,-0.0244
15,AGGCGCAG,0.166
16,TGCTCTAA,-0.00036
17,CGCTATGC,-0.0544
18,GATATATA,0.143
19,ATTCTGTG,-0.0127
20,GCCATTCC,-0.144
21,ACACCACC,-0.0988
22,GGCTTCTA,-0.207

row,Sequence,PBM E-score
1,GAATGCTA,-0.207
2,CCTTCATC,0.00919
3,GGTATAAA,-0.00745
4,TAACATAA,0.341
5,GACCGCTA,-0.199
6,CAATTGGG,-0.214
7,AGCAATCG,0.0936
8,GACTGGCA,-0.131
9,AGAACCAA,-0.0501
10,ACCCAATC,-0.24
11,CTGGGCGC,-0.198
12,AGGATTGA,0.0163
13,AGAAGGAG,-0.107
14,ATGGCCGG,-0.189
15,CCCGCTCA,-0.14
16,AACGCCAA,0.155
17,GAGTGATA,-0.0503
18,GGAACCCA,-0.107
19,CATTCCAG,-0.132
20,ATGTGGCC,-0.195
21,AGTGTGGC,-0.192
22,CTAACCGA,0.00207

row,Sequence,PBM E-score
1,CTCTCTGA,-0.348
2,CATTGTTA,0.15
3,ATCTTGTC,0.176
4,CGCATGGA,-0.0319
5,CATTATGG,-0.0987
6,CCTTCGCG,0.0462
7,CCGCATAA,-0.0908
8,CCAAGAAG,-0.0857
9,CGGCACTA,-0.184
10,ACTATTCG,0.14
11,CTGACATA,0.128
12,CTTTCGTC,0.0134
13,AAATCTTA,0.12
14,CGAACTAC,-0.00477
15,ACTATAAC,0.0802
16,CTGAGAGC,-0.108
17,AGAGGTCC,-0.298
18,AGATGCGC,-0.171
19,ACAGTAGC,0.0188
20,GATTGCAA,0.00955
21,CGATTCGC,-0.0243
22,ACGTAGAC,0.0612

row,Sequence,PBM E-score
1,GCCGACGA,-0.172
2,CGTAAAGC,0.211
3,TAATATCA,0.128
4,GACGAGAA,-0.0524
5,GGCGCACA,-0.208
6,AGAAAAGC,-0.171
7,CCCGGTAG,-0.161
8,TTGGGAAA,-0.028
9,CTCATCCA,-0.127
10,ATCTTACA,0.219
11,TACTAGGA,0.101
12,CCAATCGG,-0.352
13,ACCGAGCC,-0.19
14,AGGACACT,-0.159
15,CCTAACCA,0.0213
16,GCCCAATA,0.107
17,ATTGTCAC,-0.123
18,AGAGACCG,-0.187
19,CCCCGCTA,-0.119
20,GGTCGTTA,0.0318
21,TCACCAGA,-0.239
22,GGGTAGCA,-0.327

row,Sequence,PBM E-score
1,AAAGGTCA,-0.0805
2,ATGTTGCA,0.158
3,GTGCCACA,-0.197
4,TACAATAA,0.128
5,TACCATAA,-0.114
6,AGCGACGA,-0.0963
7,GGGACGAC,-0.187
8,ACTATCCC,-0.33
9,CGGGTAAG,-0.116
10,CGTTAAAA,0.151
11,AAGAGCGC,-0.0182
12,GGAACACA,0.192
13,ACCCCCGG,-0.239
14,AAAGCGGA,0.0141
15,CATCCGAA,0.0344
16,CGGCCGTC,-0.221
17,AGGCGGCG,0.103
18,CACTGCCC,-0.121
19,CATGGAGC,0.0242
20,GCCGTATA,0.0713
21,CTTGGAGC,-0.276
22,GCACCTCC,-0.215
